The list shows a part of the results.
Tests used:
Experiment in all cases: glycan array binding signal (z-score within array); higher = stronger binding
Conditions in all cases: glycan notation: IUPAC condensed, linker removed
[1] = biological target: Fuc(a1-2)Gal6S(b1-3)GlcNAc6S
Procedure, shortened: (§1)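 The binding signal is a Z-score computed within each array. Data were drawn from 3228 arrays in the Consortium for Functional Glycomics database, restricted to those with a known protein sequence. Scores were averaged over arrays of the same protein sequence at different concentrations or buffers, and over linkers, and negative values can be taken as non-binding.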

[2] = biological target: Fuc(a1-2)Gal6S(b1-4)Glc
Procedure, shortened: as §1

[3] = biological target: Fuc(a1-2)Gal6S(b1-4)Glc6S
Procedure, shortened: as §1

[4] = biological target: Fuc(a1-2)[Gal(a1-3)]Gal
Procedure, shortened: as §1

[5] = biological target: Fuc(a1-2)[Gal(a1-3)]Gal(b1-3)GalNAc
Procedure, shortened: as §1

[6] = biological target: Fuc(a1-2)[Gal(a1-3)]Gal(b1-3)GalNAc(b1-3)Gal(a1-4)Gal(b1-4)Glc
Procedure, shortened: as §1

[7] = biological target: Fuc(a1-2)[Gal(a1-3)]Gal(b1-3)GlcNAc
Procedure, shortened: as §1

[8] = biological target: Fuc(a1-2)[Gal(a1-3)]Gal(b1-3)GlcNAc(b1-2)Man(a1-3)[Fuc(a1-2)[Gal(a1-3)]Gal(b1-3)GlcNAc(b1-2)Man(a1-6)]Man(b1-4)GlcNAc(b1-4)GlcNAc
Procedure, shortened: as §1

[9] = biological target: Fuc(a1-2)[Gal(a1-3)]Gal(b1-3)GlcNAc(b1-2)Man(a1-3)[Fuc(a1-2)[Gal(a1-3)]Gal(b1-3)GlcNAc(b1-2)Man(a1-6)]Man(b1-4)GlcNAc(b1-4)[Fuc(a1-6)]GlcNAc
Procedure, shortened: as §1

[10] = biological target: Fuc(a1-2)[Gal(a1-3)]Gal(b1-3)GlcNAc(b1-3)GalNAc
Procedure, shortened: as §1

[11] = biological target: Fuc(a1-2)[Gal(a1-3)]Gal(b1-3)GlcNAc(b1-6)GalNAc
Procedure, shortened: as §1

[12] = biological target: Fuc(a1-2)[Gal(a1-3)]Gal(b1-4)Glc
Procedure, shortened: as §1

[13] = biological target: Fuc(a1-2)[Gal(a1-3)]Gal(b1-4)GlcNAc
Procedure, shortened: as §1

[14] = biological target: Fuc(a1-2)[Gal(a1-3)]Gal(b1-4)GlcNAc(b1-2)Man
Procedure, shortened: as §1

[15] = biological target: Fuc(a1-2)[Gal(a1-3)]Gal(b1-4)GlcNAc(b1-2)Man(a1-3)[Fuc(a1-2)[Gal(a1-3)]Gal(b1-4)GlcNAc(b1-2)Man(a1-6)]Man(b1-4)GlcNAc(b1-4)GlcNAc
Procedure, shortened: as §1

[16] = biological target: Fuc(a1-2)[Gal(a1-3)]Gal(b1-4)GlcNAc(b1-2)Man(a1-3)[Fuc(a1-2)[Gal(a1-3)]Gal(b1-4)GlcNAc(b1-2)Man(a1-6)]Man(b1-4)GlcNAc(b1-4)[Fuc(a1-6)]GlcNAc
Procedure, shortened: as §1

[17] = biological target: Fuc(a1-2)[Gal(a1-3)]Gal(b1-4)GlcNAc(b1-3)GalNAc
Procedure, shortened: as §1

[18] = biological target: Fuc(a1-2)[Gal(a1-3)]Gal(b1-4)GlcNAc(b1-3)[Fuc(a1-2)[Gal(a1-3)]Gal(b1-4)GlcNAc(b1-6)]GalNAc
Procedure, shortened: as §1

[19] = biological target: Fuc(a1-2)[Gal(a1-3)]Gal(b1-4)GlcNAc(b1-6)GalNAc
Procedure, shortened: as §1

[20] = biological target: Fuc(a1-2)[Gal(a1-3)]Gal(b1-4)[Fuc(a1-3)]Glc
Procedure, shortened: as §1

[21] = biological target: Fuc(a1-2)[Gal(a1-3)]Gal(b1-4)[Fuc(a1-3)]GlcNAc
Procedure, shortened: as §1

[22] = biological target: Fuc(a1-2)[Gal(a1-3)]Gal(b1-4)[Fuc(a1-3)]GlcNAc(b1-3)GalNAc
Procedure, shortened: as §1

[23] = biological target: Fuc(a1-2)[Gal(a1-4)]Gal(b1-4)GlcNAc
Procedure, shortened: as §1

[24] = biological target: Fuc(a1-2)[GalNAc(a1-3)]Gal
Procedure, shortened: as §1

[25] = biological target: Fuc(a1-2)[GalNAc(a1-3)]Gal(b1-3)GalNAc(a1-3)[Fuc(a1-2)]Gal(b1-4)GlcNAc
Procedure, shortened: as §1

[26] = biological target: Fuc(a1-2)[GalNAc(a1-3)]Gal(b1-3)GalNAc(b1-3)Gal(a1-4)Gal(b1-4)Glc
Procedure, shortened: as §1

[27] = biological target: Fuc(a1-2)[GalNAc(a1-3)]Gal(b1-3)GlcNAc
Procedure, shortened: as §1

[28] = biological target: Fuc(a1-2)[GalNAc(a1-3)]Gal(b1-3)GlcNAc(b1-2)Man(a1-3)[Fuc(a1-2)[GalNAc(a1-3)]Gal(b1-3)GlcNAc(b1-2)Man(a1-6)]Man(b1-4)GlcNAc(b1-4)GlcNAc
Procedure, shortened: as §1

[29] = biological target: Fuc(a1-2)[GalNAc(a1-3)]Gal(b1-3)GlcNAc(b1-2)Man(a1-3)[Fuc(a1-2)[GalNAc(a1-3)]Gal(b1-3)GlcNAc(b1-2)Man(a1-6)]Man(b1-4)GlcNAc(b1-4)[Fuc(a1-6)]GlcNAc
Procedure, shortened: as §1

[30] = biological target: Fuc(a1-2)[GalNAc(a1-3)]Gal(b1-3)GlcNAc(b1-3)GalNAc
Procedure, shortened: as §1

[31] = biological target: Fuc(a1-2)[GalNAc(a1-3)]Gal(b1-3)GlcNAc(b1-6)GalNAc
Procedure, shortened: as §1

[32] = biological target: Fuc(a1-2)[GalNAc(a1-3)]Gal(b1-4)Glc
Procedure, shortened: as §1

[33] = biological target: Fuc(a1-2)[GalNAc(a1-3)]Gal(b1-4)GlcNAc
Procedure, shortened: as §1

[34] = biological target: Fuc(a1-2)[GalNAc(a1-3)]Gal(b1-4)GlcNAc(b1-2)Man
Procedure, shortened: as §1

[35] = biological target: Fuc(a1-2)[GalNAc(a1-3)]Gal(b1-4)GlcNAc(b1-2)Man(a1-3)[Fuc(a1-2)[GalNAc(a1-3)]Gal(b1-4)GlcNAc(b1-2)Man(a1-6)]Man(b1-4)GlcNAc(b1-4)GlcNAc
Procedure, shortened: as §1

[36] = biological target: Fuc(a1-2)[GalNAc(a1-3)]Gal(b1-4)GlcNAc(b1-2)Man(a1-3)[Fuc(a1-2)[GalNAc(a1-3)]Gal(b1-4)GlcNAc(b1-2)Man(a1-6)]Man(b1-4)GlcNAc(b1-4)[Fuc(a1-6)]GlcNAc
Procedure, shortened: as §1

[37] = biological target: Fuc(a1-2)[GalNAc(a1-3)]Gal(b1-4)GlcNAc(b1-3)Gal(b1-4)GlcNAc
Procedure, shortened: as §1

[38] = biological target: Fuc(a1-2)[GalNAc(a1-3)]Gal(b1-4)GlcNAc(b1-3)Gal(b1-4)GlcNAc(b1-3)Gal(b1-4)GlcNAc
Procedure, shortened: as §1

[39] = biological target: Fuc(a1-2)[GalNAc(a1-3)]Gal(b1-4)GlcNAc(b1-3)GalNAc
Procedure, shortened: as §1

[40] = biological target: Fuc(a1-2)[GalNAc(a1-3)]Gal(b1-4)GlcNAc(b1-3)[Fuc(a1-2)[GalNAc(a1-3)]Gal(b1-4)GlcNAc(b1-6)]GalNAc
Procedure, shortened: as §1

[41] = biological target: Fuc(a1-2)[GalNAc(a1-3)]Gal(b1-4)GlcNAc(b1-6)GalNAc
Procedure, shortened: as §1

[42] = biological target: Fuc(a1-2)[GalNAc(a1-3)]Gal(b1-4)[Fuc(a1-3)]GlcNAc
Procedure, shortened: as §1

[43] = biological target: Fuc(a1-2)[GalNAc(a1-3)]Gal(b1-4)[Fuc(a1-3)]GlcNAc(b1-3)GalNAc
Procedure, shortened: as §1

[44] = biological target: Fuc(a1-2)[GalNAc(a1-4)]Gal(b1-4)GlcNAc
Procedure, shortened: as §1

[45] = biological target: Fuc(a1-2)[GalNAc(b1-3)]Gal
Procedure, shortened: as §1

B1: Si Bti9 1b-HA (Solanum lycopersicum) (protein)
chain: MFESRPRSVLSLGVFVILVYLSSVPLPVNSQCNRGCDLALASFYVWRGSNLTLISEMFSTSIADIVSYNNRDNIPNQDSVIAGTRINIPFRCDCLNDGEVLGHAFPYRVKSGDTYDLVARNYSDLTTAQWMMKFNSYPENNIPNTVNLSVVVNCSCGNSDVSKDFGLFVTYPVRAEDNLTSVASAANVSEDIIRRYNPAAVSILDIGQGIIYIPGRDRNGNFPPLPTSTDGLSGGAKAPLFFNPAFLYKVVELKLAGRSRTSGYPYDVPDYAGYPYDVPDYALEVLFQ
**Q.** For B1, which “glycan array binding signal (z-score)” value [1] is on record?
**A.** The value was 0.838.

**Q.** And the “glycan array binding signal (z-score)” value [2]?
**A.** The value was -0.028.

**Q.** And the “glycan array binding signal (z-score)” value [3]?
**A.** Its value is -0.19.

**Q.** And the “glycan array binding signal (z-score)” value [4]?
**A.** The value was -0.309.

**Q.** What about the “glycan array binding signal (z-score)” value [5] of the same binder?
**A.** The value was -0.11.

**Q.** And the “glycan array binding signal (z-score)” value [6]?
**A.** Its value is -0.308.

**Q.** And the “glycan array binding signal (z-score)” value [7]?
**A.** Its value is 1.43.

**Q.** And the “glycan array binding signal (z-score)” value [8]?
**A.** Its value is -0.203.

**Q.** What about the “glycan array binding signal (z-score)” value [9] of the same binder?
**A.** The value was 2.04.

**Q.** And the “glycan array binding signal (z-score)” value [10]?
**A.** The value was -0.307.

**Q.** And the “glycan array binding signal (z-score)” value [11]?
**A.** Its value is 0.175.

**Q.** And the “glycan array binding signal (z-score)” value [12]?
**A.** The value was 0.486.

**Q.** What about the “glycan array binding signal (z-score)” value [13] of the same binder?
**A.** The value was -0.227.

**Q.** What about the “glycan array binding signal (z-score)” value [14] of the same binder?
**A.** Its value is -0.31.

**Q.** And the “glycan array binding signal (z-score)” value [15]?
**A.** The value was 0.315.

**Q.** What about the “glycan array binding signal (z-score)” value [16] of the same binder?
**A.** Its value is -0.133.

**Q.** And the “glycan array binding signal (z-score)” value [17]?
**A.** Its value is -0.283.

**Q.** And the “glycan array binding signal (z-score)” value [18]?
**A.** Its value is 0.16.

**Q.** What about the “glycan array binding signal (z-score)” value [19] of the same binder?
**A.** The value was 0.313.

**Q.** What about the “glycan array binding signal (z-score)” value [20] of the same binder?
**A.** The value was -0.449.

**Q.** And the “glycan array binding signal (z-score)” value [21]?
**A.** Its value is -0.28.

**Q.** What about the “glycan array binding signal (z-score)” value [22] of the same binder?
**A.** The value was -0.133.

**Q.** What about the “glycan array binding signal (z-score)” value [23] of the same binder?
**A.** Its value is -0.033.

**Q.** What about the “glycan array binding signal (z-score)” value [24] of the same binder?
**A.** The value was -0.349.

**Q.** And the “glycan array binding signal (z-score)” value [25]?
**A.** Its value is -0.24.

**Q.** What about the “glycan array binding signal (z-score)” value [26] of the same binder?
**A.** Its value is 0.063.

**Q.** And the “glycan array binding signal (z-score)” value [27]?
**A.** The value was -0.146.

**Q.** And the “glycan array binding signal (z-score)” value [28]?
**A.** The value was -0.23.

**Q.** What about the “glycan array binding signal (z-score)” value [29] of the same binder?
**A.** The value was 0.109.

**Q.** And the “glycan array binding signal (z-score)” value [30]?
**A.** Its value is 0.101.

**Q.** What about the “glycan array binding signal (z-score)” value [31] of the same binder?
**A.** The value was -0.356.

**Q.** And the “glycan array binding signal (z-score)” value [32]?
**A.** The value was -0.453.

**Q.** What about the “glycan array binding signal (z-score)” value [33] of the same binder?
**A.** Its value is -0.426.

**Q.** What about the “glycan array binding signal (z-score)” value [34] of the same binder?
**A.** Its value is -0.237.

**Q.** And the “glycan array binding signal (z-score)” value [35]?
**A.** Its value is -0.17.

**Q.** What about the “glycan array binding signal (z-score)” value [36] of the same binder?
**A.** Its value is 0.288.

**Q.** And the “glycan array binding signal (z-score)” value [37]?
**A.** The value was -0.569.

**Q.** And the “glycan array binding signal (z-score)” value [38]?
**A.** The value was -0.298.

**Q.** And the “glycan array binding signal (z-score)” value [39]?
**A.** Its value is 0.004.

**Q.** What about the “glycan array binding signal (z-score)” value [40] of the same binder?
**A.** Its value is -0.137.

**Q.** And the “glycan array binding signal (z-score)” value [41]?
**A.** The value was -0.076.

**Q.** What about the “glycan array binding signal (z-score)” value [42] of the same binder?
**A.** The value was 0.334.

**Q.** What about the “glycan array binding signal (z-score)” value [43] of the same binder?
**A.** Its value is -0.194.

**Q.** And the “glycan array binding signal (z-score)” value [44]?
**A.** Its value is -0.486.

**Q.** What about the “glycan array binding signal (z-score)” value [45] of the same binder?
**A.** The value was -0.405.

Source: the supplement of paper PMC8728848
